According to patent US20250000946A1 (WUXI BIOLOGICS IRELAND, published 2025):

Legend:
[1] = target: T1, Human IL-2Rα/β/γ complex (high affinity IL-2 receptor) (human, UniProt P01589 22-272; P14784 27-551; P31785 23-369); test: FACS, MJ20 cells
T1 construct: whole, on cells
T1 sequence (looked up) 1: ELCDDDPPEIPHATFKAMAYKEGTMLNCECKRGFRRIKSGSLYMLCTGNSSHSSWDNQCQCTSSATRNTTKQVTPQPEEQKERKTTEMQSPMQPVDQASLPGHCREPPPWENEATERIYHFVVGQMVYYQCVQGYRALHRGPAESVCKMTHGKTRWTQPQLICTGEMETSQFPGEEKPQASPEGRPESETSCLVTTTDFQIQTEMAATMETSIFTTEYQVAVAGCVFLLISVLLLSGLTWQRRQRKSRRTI
T1 sequence (looked up) 2: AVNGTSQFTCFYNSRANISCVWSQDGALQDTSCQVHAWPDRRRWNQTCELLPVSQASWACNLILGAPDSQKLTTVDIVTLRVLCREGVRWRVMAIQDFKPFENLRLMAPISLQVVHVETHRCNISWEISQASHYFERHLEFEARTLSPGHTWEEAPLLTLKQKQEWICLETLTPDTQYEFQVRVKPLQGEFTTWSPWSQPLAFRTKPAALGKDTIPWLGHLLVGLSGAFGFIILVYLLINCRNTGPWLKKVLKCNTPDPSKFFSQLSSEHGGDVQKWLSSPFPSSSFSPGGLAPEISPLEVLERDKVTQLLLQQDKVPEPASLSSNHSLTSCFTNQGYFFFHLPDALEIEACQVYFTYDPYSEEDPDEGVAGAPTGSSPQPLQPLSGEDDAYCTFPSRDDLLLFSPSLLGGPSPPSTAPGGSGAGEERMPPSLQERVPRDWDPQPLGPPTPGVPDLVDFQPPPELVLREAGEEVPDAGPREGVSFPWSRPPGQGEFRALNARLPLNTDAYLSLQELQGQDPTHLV
T1 sequence (looked up) 3: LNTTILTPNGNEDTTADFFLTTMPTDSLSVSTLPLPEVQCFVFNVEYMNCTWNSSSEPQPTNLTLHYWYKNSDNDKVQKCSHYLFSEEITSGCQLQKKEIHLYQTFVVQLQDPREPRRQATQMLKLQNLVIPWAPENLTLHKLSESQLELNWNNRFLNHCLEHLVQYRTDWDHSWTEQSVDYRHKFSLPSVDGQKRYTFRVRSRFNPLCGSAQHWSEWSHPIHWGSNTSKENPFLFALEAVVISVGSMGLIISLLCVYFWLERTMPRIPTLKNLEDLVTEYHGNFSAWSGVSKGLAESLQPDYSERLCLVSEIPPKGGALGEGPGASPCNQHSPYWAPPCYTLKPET
Description: (§1) Human cutaneous T cell lymphoma HH cells, malignant non-Hodgkin's lymphoma NK92 cells and cutaneous T cell lymphoma MJ20 cells were used for binding assay. They both constitutively express IL-2Rβ (CD122) and […] (CD132), and NK92 and MJ20 also expresses IL-2Rα (CD25). HH, NK92 and MJ20 cells were cultured following ATCC guidance, then transferred to a 96-plate for binding analysis. Cells were incubated with IL-2/Fc fusion proteins at the indicated concentrations for 30 min at 4° C. to avoid internalization. Binding was detected by 2nd antibody of PE-anti-human Fc at 4° C. for another 30 min. The median fluorescence intensity (MFI) on HH and NK92 cells was measured using FACS.
IL-2 variants of T2U0.E44-6 and T2U0.E44-26 were used to construct bivalent variants W3XX115-T2.Z20-1.uIgG4V322 and W3XX115-T2.Z20-2.uIgG4V322 respectively.

[2] = target: T2, Human IL-2Rβ/γ (intermediate affinity IL-2 receptor) (human, UniProt P14784 27-551; P31785 23-369); test: cell-based or functional assay
T2 sequence (looked up) 1: T1 sequence (looked up) 2
T2 sequence (looked up) 2: T1 sequence (looked up) 3

[3] = target: T1, Human IL-2Rα/β/γ complex (high affinity …); test: cell-based or functional assay
[4] = target: T2, Human IL-2Rβ/γ (intermediate affinity …); test: cell-based or functional assay; remark: listed apart in the source
[5] = target: T1, Human IL-2Rα/β/γ complex (high affinity …); test: cell-based or functional assay; remark: listed apart in the source
[6] = target: T2, Human IL-2Rβ/γ (intermediate affinity …); test: FACS, HH cells; EC50 fold vs T2U0.E44-1
Description: as §1

[7] = target: T1, Human IL-2Rα/β/γ complex (high affinity …); test: FACS, MJ20 cells; EC50 fold vs T2U0.E44-1
Description: as §1
Mutations of F42 or R38 were involved in T2U0.E44-26 to generate IL-2 variants.

B1: W3XX115-T2U0.E44-1.uIgG4V322 (Fc fusion)
chain: [no letters for about 150 residues]ESKYGPPCPPCPAPEAAGGPSVFLFPPKPKDTLMISRTPEVTCVVVDVSQEDPEVQFNWYVDGVEVHNAKTKPREEQFNSTYRVVSVLTVLHQDWLNGKEYKCKVSNKGLPSSIEKTISKAKGQPREPQVYTLPPCQEEMTKNQVSLWCLVKGFYPSDIAVEWESNGQPENNYKTTPPVLDSDGSFFLYSRLTVDKSRWQEGNVFSCSVMHEALHNHYTQKSLSLSLG
heavy: EIQLQQSGPELVKPGASVKVSCKASGYSFTDYNMYWVKQSHGESLEWIGYIDPYNGGTRYNQKFKGKATLTVDKSSSTAFMHLNSLTSEDSAVYYCARNGHWDGAWFAYWGQGTLVTVSAASTKGPSVFPLAPCSRSTSESTAALGCLVKDYFPEPVTVSWNSGALTSGVHTFPAVLQSSGLYSLSSVVTVPSSSLGTKTYTCNVDHKPSNTKVDKRVESKYGPPCPPCPAPEAAGGPSVFLFPPKPKDTLMISRTPEVTCVVVDVSQEDPEVQFNWYVDGVEVHNAKTKPREEQFNSTYRVVSVLTVLHQDWLNGKEYKCKVSNKGLPSSIEKTISKAKGQPREPQVCTLPPSQEEMTKNQVSLSCAVKGFYPSDIAVEWESNGQPENNYKTTPPVLDSDGSFFLVSRLTVDKSRWQEGNVFSCSVMHEALHNHYTQKSLSLSLG
light: DIQMNQSPSSLSASLGDTITITCHASQNINVWLSWYQQKPGNIPKLLIYKASNLHTGVPSRFSGSRSGTGFTLTISSLQPEDIATYYCHQGQSYPFTFGSGTKLEIKRTVAAPSVFIFPPSDEQLKSGTASVVCLLNNFYPREAKVQWKVDNALQSGNSQESVTEQDSKDSTYSLSSTLTLSKADYEKHKVYACEVTHQGLSSPVTKSFNRGEC
notes: WT IL-2, no linker, IgG4 Fc with FALA, one Fab arm (E44 format); also called T20.E44-1; wild-type IL-2
For B1, the EC50 [1] was 8.31 nM, the “Potency in human CD8+ T EC50” value [2] was 10.2 nM and the “Potency reduction (CD8+ T)” value [2] was 1 fold. The “Potency in human Treg EC50” value [3] was 0.002 nM, the “Potency reduction (Treg)” value [3] was 1 fold and the “Human CD8+ T Potency EC50 (STAT5 phosphorylation)” value [4] was 3.65 nM. For the same binder, the “Human CD8+ T Potency reduction” value [4] was 1 fold, the “Human Treg Potency EC50 (STAT5 phosphorylation)” value [5] was 0.0014 nM and the “Human Treg Potency reduction” value [5] was 1 fold. For the same binder, the Affinity reduction [6] was 1 fold and the Affinity reduction [7] was 1 fold.
